Values marked as one replicate rest on one cluster of the flow cell; about a third of the high ones do not repeat.
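Note: ATP exposure 15 min at 22 °C before imaging.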

The data set concerns ATP. As to the kind of experiment: switch fluorescence ratio, 500 uM ATP over buffer (Cy3 cluster intensity, sum of 5 cycles each) (fold (ratio)); higher = stronger signal-on switching upon ATP binding; sequences stand for … in TCGTCGGCAGCGTCAGATGTGTATAAGAGACAGTTTTTTTTTTTTTTTTTTTTTTTTT…TC. To be noted: aptamer strand: ATP DNA aptamer (quencher-CACCTGGGGGAGTATTGCGGAGGAAGG + anchor), 100 nM annealed; ATP concentration: 500 uM; one replicate. The gist of the method: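 Clusters carrying Cy3-labelled switching strands on a modified Illumina MiSeq flow-cell were annealed to 100 nM quencher-labelled ATP aptamer and imaged in selection buffer. They were imaged again after 15 min with 500 uM ATP at 22 °C, over five buffer/ATP cycles with NaOH stripping and re-annealing in between. For each cluster, the fluorescence ratio is the summed Cy3 intensity of the target cycles divided by that of the buffer cycles, averaged per switch-domain sequence. Clusters outside 100-1000 RFU were left out.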
Consider GGATGTGAG, for which the switch fluorescence ratio turned out to be 0.976. In the case of ATATTCGATA, the switch fluorescence ratio worked out at 0.975. Regarding AGGAAGTCGC, the switch fluorescence ratio is 0.941. For AAATCCTAGG the value was 1.04. For CAACGGGGGC the value was 1.16. The figure for TATCTATGTT is 0.953; for TTCTATACT it is 1.02. Regarding CGCAGGCTTT, the switch fluorescence ratio amounted to 1.1. As to ATTCATTAGT, the switch fluorescence ratio turned out to be 0.997.

Take AGCGCACTTG: the switch fluorescence ratio turned out to be 1.04. For GCGAGAATTG the value was 1.06; for GGAACCGAAT, 1; for CCGGTTTAGG, 0.973.

In the case of ACACTAAATC, the switch fluorescence ratio was found to be 1.07.

For the sequence AGGGTCTAC, the switch fluorescence ratio turned out to be 0.975. As to ATAGTATCAT, the switch fluorescence ratio came out at 0.955.

Consider AAGGCTACAG, for which the switch fluorescence ratio stood at 1.05.

Consider CGGCCGTGGC, for which the switch fluorescence ratio is 1.01.

As to GAGGATACCT, the switch fluorescence ratio was found to be 1.1. For AAGTGCAAAG the value was 1.01. The figure for GCTCCGGGGT is 1.97. In the case of TGATAGGTAC, the switch fluorescence ratio came out at 1.06. Turning to AATTGGAGT, the switch fluorescence ratio turned out to be 1.02.

With CAATCGCAGA, the switch fluorescence ratio turned out to be 1.02. For ACTGTAAAGG the value was 1.05; for CAGCACTTTA, 1.04; for GCCACAGAGC, 1.1.

Take CTCCCCGAT: the switch fluorescence ratio amounted to 1.71. As to TTCCGCGGGA, the switch fluorescence ratio stood at 1.1. For GGCGTTATTA the value was 1.01; for TGCAACCCGC, 1.03; for GGGACAGGAG, 1.04. The figure for ATATCAGATA is 0.994. For TACGAATGGC the value was 1.09. With GATGGCTACA, the switch fluorescence ratio amounted to 0.983. Turning to TCCGATTA, the switch fluorescence ratio stood at 1.05. For TAGCGATCCA the value was 1.01. The figure for GTGGGAGATT is 1; for TGGGTGGCCG it is 0.989. For CCTCTGAGGG, the switch fluorescence ratio turned out to be 1.11. Consider GTATCTGGGA, for which the switch fluorescence ratio was 0.979. For the sequence GACACCACGA, the switch fluorescence ratio was 1.48. For TCCGGTTTCT the value was 0.985; for ATGCGTCTCT, 1.02. For TCGCTGGAAC the value was 1.29; for ATTAAAGCTC, 0.967; for GCTGTTATAC, 1.42. For TACGACCCAT the value was 1.45; for CTTGGTAGGC, 1.02; for TACGCTCCCC, 2.22. CGCCAAAATT: the switch fluorescence ratio turned out to be 0.986. The figure for ATAAACTC is 1.03.

As for ACAGCACCAC, the switch fluorescence ratio worked out at 1.53. The figure for TAAAGTAGTG is 1.01; for ACCGTGCCGA it is 1.07. The figure for TGCAGCAGAA is 1.14. Take CAGGACACAC: the switch fluorescence ratio is 1.37.

Turning to ACATAAACGT, the switch fluorescence ratio amounted to 1.13. Regarding ACTATACACG, the switch fluorescence ratio was 1.29.

Regarding GACACCCTTC, the switch fluorescence ratio stood at 1.1.

Regarding ATAATCAGCT, the switch fluorescence ratio stood at 1.06. The figure for TGCATACTAT is 1.09; for CCGGCGGTAG it is 1.14; for TTGAGTACGA it is 0.979. With GCCGGTAGGA, the switch fluorescence ratio is 0.962. For AAGTGCATCC the value was 1.04. The figure for TCCTCTCAAG is 2.39; for GGTTAGAGGC it is 0.988.

GTGCCCTCTT: the switch fluorescence ratio amounted to 0.963.

On to AGTGAAGTTG, for which the switch fluorescence ratio was determined as 0.997. For CAAGGCTACT the value was 0.986; for GTTGAATCGC, 0.998.

For AAAAGCTAAG, the switch fluorescence ratio came to 1.03. On to AGGAAATTGC, for which the switch fluorescence ratio worked out at 0.965. Take TCGGTACGGG: the switch fluorescence ratio was determined as 1. For the sequence TCCGATCGGA, the switch fluorescence ratio came to 0.967. The figure for CTGTTTCGTT is 1. The figure for GCACGCAGCG is 0.934.
